Where “and” joins values, the source holds several entries; their conditions need not be identical. Equal entries are not always repeated. ± gives the uncertainty stated by the source. This continues a long series; more values of the same kind are listed elsewhere.
Experiment: xn = mol fraction of the nth substance listed
Conditions: 101.3 kPa

CCCC[n+]1ccn(C)c1.[Cl-] + O
viscosity
Conditions | x1 = 0.003602 | x1 = 0.003604 | x1 = 0.003614 | x1 = 0.003623 | x1 = 0.00538 | x1 = 0.005432 | x1 = 0.00552 | x1 = 0.005593
298.15 K | – | 0.961 ± 0.026 mPa·s | 0.963 ± 0.026 mPa·s | 0.974 ± 0.026 mPa·s | 1.011 ± 0.027 mPa·s | 1.015 ± 0.029 mPa·s | 1.005 ± 0.027 mPa·s | 1.001 ± 0.028 mPa·s and 1.01 ± 0.027 mPa·s
308.15 K | 0.785 ± 0.021 mPa·s | 0.772 ± 0.021 mPa·s | 0.773 ± 0.021 mPa·s | 0.783 ± 0.021 mPa·s | 0.807 ± 0.022 mPa·s | 0.816 ± 0.023 mPa·s | 0.801 ± 0.022 mPa·s | 0.807 ± 0.022 mPa·s
310.15 K | 0.754 ± 0.02 mPa·s | 0.742 ± 0.02 mPa·s | 0.742 ± 0.02 mPa·s | 0.755 ± 0.02 mPa·s | 0.775 ± 0.022 mPa·s | 0.787 ± 0.021 mPa·s | 0.77 ± 0.021 mPa·s | 0.773 ± 0.022 mPa·s
318.15 K | 0.643 ± 0.017 mPa·s | 0.638 ± 0.017 mPa·s and 0.639 ± 0.017 mPa·s | 0.638 ± 0.017 mPa·s | 0.65 ± 0.017 mPa·s | 0.666 ± 0.018 mPa·s | 0.676 ± 0.02 mPa·s | 0.661 ± 0.018 mPa·s | 0.664 ± 0.019 mPa·s

Reference: the CheMixHub ionic liquid set
